The RNAGym collection of RNA variant scans (doi:10.7554/elife.90254)
The source gives no read counts; variants with many changes may rest on few reads.

B1: OR4K15 (parent)
chain: GUUAACGGUCAUAGGCCAUGGAAACUAGGAGCACCAUUUCGCUGCCAGUGAAGAAAUGAACAAAGAAAAUCUGGGCCAGGCAGGCAUCAAAAGAAAUAGUCUUGCGCUCAACCAGAAAGUCUGUAAUCAUUUUAAGGGUA

Variants of: B1
Experiment: self-cleavage, relative activity (ratio to wild type); higher = more cleavage; in vitro, sequencing; the parent is a self-cleaving ribozyme

Variant	self-cleavage
A36G A95G U103C U120C	0.3
A11G A36U U87C A95C U100C U103C U108C U130A	0
G7U A11G A22G U108C	0.04
U9A A60G A67U A68G	0.87
G58U A91G U127C	0.76
G14A A47G A60G	0.7
A24G A89C A110G A111G	0.17
A5G A54G U108C U120C	0.04
A4G U9A A24G U131C A140G	0.96
A11G A90G A129U	0.83
A24G A47U U49C U120C	0.28
U2A A22G U87A	0.68
U37C U103C A114G A134G A135G	0.12
A30U A62G U102C U103C	0.17
A27G U37C G44A A98G	0.58
U49G A67G A92G	1.14
U9C A23G A51G A114G A140G	0.81
A4G A62G A114G	1
A30U U49C A91G A96G A111G	0.02
U43C U102C A125G	1.45
A4C A22G A54G	0.81

Variant	self-cleavage
U2A U57C A63G A96G	1.09
A64G A69G U124A	0.34
A62G U87C C105U	0.12
A56G A64G A66G U122C	0.76
A59G A86G G115C	0.05
A30G A56G U108C	0
A22G A52U G119A	1.95
C32U U37C U39C U122C	1.3
G83U A125U U132C	0.25
A68G A89U U100C U120C A129G	1.42
A18C A62U A82G U131C	0.14
A59U U108C A126G	0.01
A33G A89G U122A	0.16
A52U A68G U108C	0.03
U39C A47U U100C	2.1
U87C U127C A140G	0.64
A64G U102C A114U	0.07
A55G A60U U102C	2.04
A33G A89G U127C U133A	0.26
A69C U100C U131C	2.26
U12C A60G A126G	1.16

Variant	self-cleavage
A27G U39C A56G A114U U122A U132A	0.1
A5G A60C A66G A69G A82U U103A	1.14
U2C A62U U103C A126G A140G	0.86
U39A A63U U108C A116G A117G G136A	0
U19A A92G A116G	0.31
A30G A67G C105U A114G	0.09
A18U A24G U37C U49C A54G	0.9
A18G A67G A78G A86G	0.36
A5G A23G A66G U100C	1.58
A56G A62G A64G A82G U127C	0.06
A56C A82G A126G	0.2
C17U A23G A30C U100C	1.6
A86G A118G U127C	0.26
A86G A91G A111G	0
A68G U87C A95G	0.68
U38C A55G A96G	0.97
A64G A67G A125G	0.42
U19A A36C A59C U87C	1.42
A11G A55G U72C	0.16
U43A U49C A96U U130C	1.48
A24U A69G A78G A117G	0.06

Variant	self-cleavage
A18G U97C U127C	0.34
A59G A64G U97C U132C	1.48
A18U A55G A82G U87C U122C	0.11
A33G A52G A78U	0.39
A36G A94G A126G	1.45
G15U A114G U130C	0.15
A22G A33G U43C	0.87
A11G A24G G31U A82C U102G	0.87
A90G A96G C109A U130C	0.12
A24C U26C A68G A90G A91G A98U U122C	1.25
A18G A36U A69G A116G	0.23
A18C U38C A55U A64U A78G A114U	0.04
A30G A52G A54G G83U	0.7
A92G A94G U108C U127A	0.03
U2C A4G U9C A116U	0.21
G8A G84A U87A	2.54
A5G U12C U122A	0.92
U43C A96G G138A	1.89
U57C U103C U122A	0.82
A5G U19C G20A A78G U120C	0.28
A66G A92G A135G	2.03
